Test results as given in PubChem BioAssay AID1768 (National Center for Advancing Translational Sciences (NCATS), 2009).
The whole screen tested about 270,000 compounds, of which about 620 (0.23%) were called active. Inconclusive means that the source gave no clear call. Such entries were picked first, then a sample of the others. Calls follow the shape of the dose curve; as a rule, active = well fitted inhibition curve with a large enough effect in the polarisation, with a control signal flat (not every such curve was filed as active); inconclusive = small, poorly fitted or top-dose-only effect, or effect the other way, or a change in a side signal; inactive = no such curve, though single readings can be large or run the other way; the % refers to the polarisation. A potency beside an inconclusive call is a rough fit, not a confirmed value. A note “side channel” means that the fit belongs to a control or component signal, not to the main read-out.

Molecular target: Menin (Homo sapiens) (UniProt O00255)
Chain of UniProt O00255 (O00255 whole entry, looked up): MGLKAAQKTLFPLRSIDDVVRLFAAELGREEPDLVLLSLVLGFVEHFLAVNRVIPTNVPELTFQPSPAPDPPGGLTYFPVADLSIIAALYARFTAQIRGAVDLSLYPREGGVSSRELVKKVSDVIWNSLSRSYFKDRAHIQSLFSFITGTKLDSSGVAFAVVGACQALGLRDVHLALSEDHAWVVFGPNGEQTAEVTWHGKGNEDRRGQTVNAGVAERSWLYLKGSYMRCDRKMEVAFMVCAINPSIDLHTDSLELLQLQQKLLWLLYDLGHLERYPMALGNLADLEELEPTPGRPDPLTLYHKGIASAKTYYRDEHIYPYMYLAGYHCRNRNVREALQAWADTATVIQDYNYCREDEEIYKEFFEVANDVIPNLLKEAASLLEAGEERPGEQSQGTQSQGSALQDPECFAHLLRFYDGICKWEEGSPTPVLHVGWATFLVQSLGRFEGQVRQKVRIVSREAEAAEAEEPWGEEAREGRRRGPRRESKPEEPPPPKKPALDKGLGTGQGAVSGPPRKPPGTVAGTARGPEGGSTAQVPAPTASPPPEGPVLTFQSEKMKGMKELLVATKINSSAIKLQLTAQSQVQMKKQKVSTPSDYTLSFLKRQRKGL
Test: qHTS Assay for Inhibitors Targeting the Menin-MLL Interaction in MLL Related Leukemias: Competition With Texas Red Labeled MLL-derived Mutant Peptide
Conditions: fluorescence polarization; series mostly up to 61.6 µM
Potency is read from the fitted curve at half-maximal effect; tags tell the direction and shape of the fitted curve or compound fluorescence and quenching.

SMILES	Potency
CCC(C)N1CCN(S(=O)(=O)c2ccc3ccccc3c2)CC1 (stereo unspecified)	inconclusive: 39.8 µM [inhibitor, partial curve]
O=C(CSc1ccc(Cl)cc1)Nc1ccc(N2CCN(c3ccccc3)CC2)c(F)c1	inconclusive: 11.2 µM [inhibitor, partial curve]
CCc1ccccc1NC(=O)CN1CCN(CC(=O)Nc2ccc(-c3ccccc3)cc2)CC1	inconclusive: 2 µM [fluorescent, side channel, full curve, poor fit]
COCCOc1cc(NC(=O)c2sccc2Oc2ccc([N+](=O)[O-])cc2F)c(Cl)cc1Cl	inactive
O=C(/C=C/c1cccc([N+](=O)[O-])c1)NCCSc1ccccc1	inconclusive: 31.6 µM [quencher, side channel, single point]
CCCC1=Nc2cc(C(=O)NCCN3CCCC3)ccc2Sc2ccccc21	inconclusive: 11.2 µM [fluorescent, side channel, partial curve]
COc1cc(/C=C(\C#N)C(=O)NCC2CCCO2)c([N+](=O)[O-])cc1OC (stereo unspecified)	inconclusive: 2.82 µM [inhibitor, full curve]
O=C(COc1cccc2ccccc12)N/N=C/c1ccccc1OCc1ccc(C(=O)O)cc1	inconclusive: 11.2 µM [quencher, side channel, partial curve]
COc1ccc(S(=O)(=O)Nc2cccc(C)c2C)c2cccnc12	inactive
C/C(=N\NC(=O)c1ccccc1F)c1ccc2c(c1)Nc1ccccc1S2	inconclusive: 6.31 µM [quencher, side channel, partial curve]
COCCNC(=O)CCc1ccc(S(=O)(=O)Nc2ccc(C)cc2)cc1	inconclusive: 12.6 µM [inhibitor, partial curve]
c1ccn(-c2ccc(N3CCOCC3)cc2)c1	inconclusive: 35.5 µM [inhibitor, partial curve]
Cc1ccccc1NC(=O)c1ccc(F)c(S(=O)(=O)N2CCN(c3ccccn3)CC2)c1	inconclusive: 3.16 µM [inhibitor, partial curve]
Cc1ccc(N(CC(=O)Nc2ccccc2C(=O)NCc2ccco2)S(=O)(=O)c2ccccc2)cc1C	inconclusive: 39.8 µM [inhibitor, single point]
O=C(c1ccc(Cl)c(S(=O)(=O)N2CCCC2)c1)N1CCN(c2ccc(F)cc2)CC1	inconclusive: 31.6 µM [inhibitor, partial curve]
CCOC(=O)c1ccc(NC(=O)c2cc3ccccc3o2)cc1	inconclusive: 28.2 µM [quencher, side channel, single point]
CCOC(=O)c1[nH]c2ccccc2c1NC(=O)c1ccc(S(=O)(=O)N2CCCC2)cc1	inconclusive: 39.8 µM [quencher, side channel, single point]
COc1c(OC(C)=O)ccc(/C=C/c2ccc3cccc(OCc4ccccc4)c3n2)c1[N+](=O)[O-]	inconclusive: 10 µM [quencher, side channel, partial curve]
O=C(CSc1nnnn1-c1ccc(O)cc1)Nc1ccc(N2CCOCC2)c(Cl)c1	inconclusive: 17.8 µM [quencher, side channel, partial curve]

SMILES	Potency
COc1cc(/C=N/Nc2ccccc2C(F)(F)F)ccc1O	inconclusive: 25.1 µM [quencher, partial curve]
O=C(/C=C/c1ccc(O)c([N+](=O)[O-])c1)c1ccc2ccccc2c1	inconclusive: 25.1 µM [quencher, side channel, partial curve]
Cc1ccc(NCc2ccc([N+](=O)[O-])s2)cc1	inconclusive: 35.5 µM [quencher, side channel, single point]
Cc1ccc(-c2csc(NC(=O)Cc3cccs3)n2)cc1C	inconclusive: 11.2 µM [quencher, side channel, partial curve]
COCCN(C)Cc1cn(-c2ccc(F)cc2F)nc1-c1ccccc1C	inconclusive: 22.4 µM [fluorescent, side channel, single point]
CC(=C\c1ccco1)/C=C(\C#N)C(=O)NCCc1c[nH]c2ccccc12	inconclusive: 22.4 µM [quencher, side channel, partial curve]
COc1ccccc1Nc1nc2nonc2[nH]c1=O	inconclusive: 12.6 µM [quencher, side channel, partial curve]
O=c1c(O)c(-c2ccc(O[C@@H]3O[C@H](CO)[C@@H](O)[C@H](O)[C@H]3O)c(O)c2)oc2cc(O)cc(O)c12	inconclusive: 17.8 µM [quencher, side channel, single point]
CN1CCN(CCCCOc2cccc3ccccc23)CC1	inconclusive: 31.6 µM [inhibitor, partial curve]
N#C/C(=N\O)c1nc(-c2ccccc2)cs1	inconclusive: 17.8 µM [quencher, side channel, single point]
CCCS(=O)(=O)N1CCCC(C(=O)NCCN(Cc2ccccc2)C(C)C)C1 (stereo unspecified)	inconclusive: 39.8 µM [inhibitor, single point]
CCC(=O)Nc1nc2ccc3sc(C)nc3c2s1	inconclusive: 39.8 µM [fluorescent, single point]
C/C(=N\N=c1/sc2ccccc2n1C)c1ccc(N2CCOCC2)cc1	inconclusive: 14.1 µM [quencher, side channel, partial curve]
Cc1ccc(-n2c(SCC(=O)Nc3ccc4c5c(cccc35)CC4)nc(O)cc2=O)cc1	inconclusive: 10 µM [quencher, side channel, partial curve]
Cc1ccc(Nc2cc(=O)[nH]c(=O)[nH]2)c(C)c1	inconclusive: 2.82 µM [inhibitor, full curve]
COc1ccc(N2C(=O)N3[C@H](c4ccc(Cl)cc4)[C@@H]4C(=O)N(C5CCCCC5)C(=O)[C@@H]4[C@]3(Cc3ccc(Cl)cc3)C2=O)cc1	inconclusive: 25.1 µM [fluorescent, side channel, single point]
O=C1NC(=Nc2ccccc2)/C(=C/c2ccco2)S1	inconclusive: 8.91 µM [quencher, side channel, partial curve]
Cc1cc(C)n(C(C)CC(=O)Nc2ccc3c(c2)OCO3)n1 (stereo unspecified)	inconclusive: 17.8 µM [quencher, side channel, partial curve]
CCCOc1ccc(N2C(=O)CC(NNC(=O)c3ccc(COc4ccccc4)o3)C2=O)cc1 (stereo unspecified)	inconclusive: 14.1 µM [fluorescent, side channel, single point]

SMILES	Potency
COc1ccc(/C=C/C(=O)N(C)C2CCCCC2)cc1Br	inconclusive: 2 µM [inhibitor, full curve]
Cc1ccc(C(C(=O)NC2CCCCC2)N(Cc2ccco2)C(=O)Cn2cnc3ccccc32)cc1 (stereo unspecified)	inactive
COc1cccc(/C=C2\SC(=S)N(NS(=O)(=O)c3ccc(C)cc3)C2=O)c1OC	inconclusive: 25.1 µM [quencher, side channel, single point]
Cc1ccc(C(=O)c2cc([N+](=O)[O-])ccc2N2CCOCC2)c(C)c1	inconclusive: 28.2 µM [inhibitor, partial curve]
O=C(O)c1c2c(nc3ccc(S(=O)(=O)N4CCC(C(=O)NC5CCCCCC5)CC4)cc13)CCCC2	inconclusive: 22.4 µM [quencher, side channel, single point]
CO/N=C/c1ccc(Sc2ccccc2N)c([N+](=O)[O-])c1	inconclusive: 17.8 µM [quencher, side channel, partial curve]
CCCCC1OC23CCCCC2C(C#N)(C#N)C1(C#N)C(=N)O3 (stereo unspecified)	inconclusive: 20 µM [inhibitor, partial curve]
COc1ccc(N(CC(=O)Nc2cc(Cl)ccc2OC)S(=O)(=O)c2c(C)[nH]c(=O)[nH]c2=O)cc1	inconclusive: 14.1 µM [quencher, side channel, partial curve]
CCNC(=O)/C(C#N)=C/c1c(N2CCCCCC2)nc2ccccn2c1=O	inconclusive: 10 µM [inhibitor, full curve, poor fit]
O=C(CCCOc1ccc(Cl)cc1)N1CCCCC1	inactive
Fc1ccc(N/N=C(/c2ccccc2)c2ccccn2)cc1	inconclusive: 4.47 µM [quencher, side channel, partial curve]
COc1ccccc1CCNC(=O)c1cnccn1	inconclusive: 39.8 µM [inhibitor, single point]
N#Cc1nc(Cc2cccc3ccccc23)oc1NCc1ccc2c(c1)OCO2	inconclusive: 14.1 µM [quencher, side channel, single point]
O=C(/C=C/Nc1ccccc1F)c1ccc(Br)cc1	inconclusive: 39.8 µM [inhibitor, single point]
Cc1ccc(C=Nc2ccc(N(C)C)cc2)o1	inconclusive: 14.1 µM [fluorescent, side channel, partial curve]
Cc1c(Cc2ccc3c(c2)OCO3)sc(NC(=O)c2cccc3ccccc23)c1C(N)=O	inconclusive: 3.55 µM [quencher, side channel, full curve]
O=c1c2c(C(F)(F)F)cc(C(F)(F)F)nc2[nH]n1-c1ccccc1	inconclusive: 31.6 µM [quencher, side channel, single point]
CCOC(=O)c1[nH]c2cc(OC)c(OC)cc2c1NC(=O)c1ccc2c(c1)OCO2	inconclusive: 20 µM [quencher, side channel, partial curve]
